# Results: PubChem BioAssay AID463173 (ICCB-Longwood Screening Facility, Harvard Medical School, 2010)
# In all, about 52,000 compounds went through this assay and about 1,700 (3.3%) were called active. No stated cut-off is given here; in the data, active means survival mostly below about 52% (no sharp cut-off); inactive means mostly above about 56%. The list shows a part of the results.
# Tested on: Wild type
# Test: growth inhibition of S. aureus wild type versus tarO mutant, primary screen, teichoic acid synthesis inhibitors, RN4220, OD600 (AID 463173)
# Conditions: S. aureus RN4220 wild type/DeltatarO growth, OD600, 18 h, active compounds read low, screened at 18.75 µg/mL (by protocol)
row,Compound,survival
1,COc1ccc(NC(=O)Cn2nc(-c3ccncc3)ccc2=O)cc1Cl,inactive: 69%
2,Cc1ccc(NC(=O)/C(C#N)=C/c2ccc(C)o2)cc1,inactive: 83%
3,CC(C)CCNC(=O)c1ccc2c(c1)NC(=O)C(CS(=O)(=O)Cc1cccc(Br)c1)N2 (centres undefined),inactive: 135%
4,COc1ccc(CCNc2ncnc3c2cnn3-c2cccc(Cl)c2)cc1,inactive: 75%
5,Cc1cc(C)n(CCc2nc3c4ccccc4nc(N4CCN(c5ccccc5F)CC4)n3n2)n1,inactive: 78%
6,COc1ccc(NC(=O)CSc2nc3ccccc3n2CC(=O)N(C)c2ccc(F)cc2)cc1,inactive: 76%
7,COc1ccc(OCCCCn2c(C3CC(=O)N(c4cccc(Cl)c4)C3)nc3ccccc32)cc1 (centres undefined),inactive: 96%
8,COc1ccc(-c2cc(C(F)F)nc(-n3nc(C)cc3C)n2)cc1,inactive: 101%
9,Cc1ccc(Cn2ccnc2SCC(=O)NCc2ccc(F)cc2)cc1,inactive: 70%
10,CCS(=O)(=O)N1CCc2cc(C(=O)NCCc3ccccc3)ccc21,inactive: 104%
11,CCCN1CCN(CCNC(=O)Nc2ccc(OC)c(OC)c2)CC1,inactive: 84%
12,CN1C(=O)C2(SCC(=O)N2c2cccc(C(F)(F)F)c2)c2ccccc21 (centres undefined),inactive: 132%
13,CCOC(=O)C1CCC(CN(Cc2ccc(Cl)cc2)S(=O)(=O)c2ccc(Br)cc2)CC1 (centres undefined),inactive: 71%
14,CCOC(=O)C1CCN(CC(=O)N2CCCc3c2c(=O)oc2ccc(OCc4ccccc4)cc32)CC1,inactive: 110%
15,COc1ccc(-c2onc(C)c2C)cc1S(=O)(=O)N(C)Cc1ccco1,inactive: 100%
16,CCOc1ccc(NC(=O)c2cn(C)c(=O)c3cc(OC)c(OC)cc23)cc1,inactive: 66%
17,C=CCc1cccc2cc(C(N)=O)c(=N)oc12,inactive: 102%
18,COc1ccc(CCN=C(N)Nc2nc(C)cc(C)n2)cc1,inactive: 99%
19,CCS(=O)(=O)N1CC(=O)N(c2cccc(Cl)c2C)C(C)(C(=O)NC2CCCCC2)C1 (centres undefined),inactive: 71%
20,CC(C)CSc1nnc2c3ccccc3n(C)c2n1,inactive: 103%

row,Compound,survival
1,CCN(CCCNC(=O)c1cc2cc3ccc(C)cc3nc2s1)c1ccccc1,inactive: 127%
2,CCCN(c1ccccc1CC)S(=O)(=O)c1ccc2c(c1)CC(C)N2C(=O)C1CC1 (centres undefined),inactive: 90%
3,Cc1ccc(N=Cc2ccc(C)o2)cc1,inactive: 112%
4,COCCNC(=O)CCCN1C(=O)c2ccccc2Sc2ncccc21,inactive: 87%
5,O=S(=O)(c1cccc(F)c1)N1CCC(c2nc3ccccc3s2)CC1,inactive: 88%
6,Cc1ccc(NC(=O)c2oc3ccc(S(=O)(=O)N(C)C4CCCCC4)cc3c2C)cc1Cl,inactive: 66%
7,Cc1ccc(-n2c(C)cc(CO)c2C)cc1,inactive: 100%
8,COc1ccc(-c2nc(CSCC(=O)N3CCN(c4ccc(OC)cc4)CC3)c(C)o2)cc1,inactive: 81%
9,CC1CCCCN1C(=O)c1ccccc1F (centres undefined),inactive: 95%
10,CC(=O)N1CCc2cc(S(=O)(=O)NC(CC(C)C)C(=O)NCc3ccccc3)ccc21 (centres undefined),inactive: 73%
11,O=c1c(=O)n(-c2cccc(Cl)c2)ccn1Cc1cccc(F)c1,inactive: 86%
12,COc1cccc2c1cc1c(=O)n(CC(=O)NC3CC3)nc(C)n12,inactive: 80%
13,CCCCN(CCCC)CC(O)Cn1cc(/C=C/C(=O)c2ccccc2)c2ccccc21 (centres undefined),active: 18%
14,COc1cccc(-c2nc(CSCC(=O)NCCc3ccc(Cl)cc3)c(C)o2)c1,active: -1%
15,Cc1nnc(SCC(=O)Nc2ccc(Br)cc2)[nH]c1=O,inactive: 114%
16,O=c1c2c(nc3n1CCCS3)-c1ccccc1CC21CCCC1,inactive: 107%
17,COc1ccc(C)cc1Nc1nc(-c2cccc(Cl)c2)c2c(n1)-c1ccccc1OC2,inactive: 81%
18,COc1cc(-c2nc(Cn3nnc(C(=O)Nc4cc(C)cc(C)c4)c3C)c(C)o2)cc(OC)c1OC,inactive: 70%
19,Cc1ccc(-c2nc(N3CCN(c4ccccc4Cl)CC3)c3ccccc3n2)cc1,inactive: 62%
20,CCCCC(CC)CNC(=O)CCCn1c(=O)[nH]c2ccsc2c1=O (centres undefined),inactive: 118%

row,Compound,survival
1,CCOc1ccc(NC(=O)C(NC(=O)C2CCC(C)CC2)C(C)C)cc1 (centres undefined),inactive: 76%
2,CCOC(=O)c1cc(-c2ccccc2)n(CC(=O)N(C)c2ccc(OC)cc2)c1C,inactive: 94%
3,NNC(=O)c1c(O)c2ccccc2[nH]c1=O,inactive: 84%
4,CN(C)S(=O)(=O)c1ccc(C(=O)N2CC(=O)Nc3ccc(Br)cc3C2c2ccc(F)cc2)cc1 (centres undefined),inactive: 98%
5,Cc1ccc(CNC(=O)c2ccc(Cn3c(SCc4ccccc4F)nc4cccnc43)cc2)cc1,inactive: 73%
6,CC1CCN(C(=O)Cn2c(=O)oc3cc(S(=O)(=O)N4CCCCC4)ccc32)CC1,inactive: 83%
7,CCOc1cc(CNc2ccc(O)cc2)ccc1OCc1ccc(Cl)cc1,active: 10%
8,COc1ccc(CNC(=O)CN(c2ccccc2)S(=O)(=O)N(C)C)cc1,inactive: 141%
9,CCOC(=O)c1cc2c(=O)n3ccccc3nc2n(CCCOC)c1=NC(=O)C(C)Oc1ccccc1 (centres undefined),inactive: 71%
10,Cc1cccc(-n2c(=O)c3c4c(sc3n3cnnc23)CCCC4)c1,inactive: 72%
11,CCN1CCN(c2c(S(=O)(=O)c3ccc(C)c(C)c3)cnc3cc(OC)c(OC)cc23)CC1,inactive: 78%
12,Cc1cc(C)cc(NC2=CC(c3cccc(F)c3)N(c3cc(C)cc(C)c3)C2=O)c1 (centres undefined),inactive: 78%
13,Cc1cc(=O)n(Cc2cccc(Cl)c2)c2c1c(C)nn2-c1ccccc1,inactive: 55%
14,CCN(CC)C(=O)c1sc2c(c1C)c(=O)n(-c1ccccc1)c(=O)n2CC(=O)Nc1ccc(C)cc1C,inactive: 78%
15,CCOc1ccc(CC(=O)NCCc2sc3nc(-c4ccc(OC)cc4)nn3c2C)cc1,inactive: 93%
16,COc1ccc(NC(=O)c2ccco2)cc1NC(=O)c1cccc(F)c1,inactive: 104%
17,Cc1ccc(S(=O)(=O)Nc2nc3c(s2)C(=O)CC(C)(C)C3)cc1,inactive: 119%
18,CCCCSc1ncnc2c1c(-c1ccccc1)cn2-c1cccc(F)c1,inactive: 84%
19,CCN(CC)CCNC(=O)c1ccc2c(c1)sc1nc(-c3ccc(F)cc3)cn12,inactive: 27%
